Laboratory results from the supplement of paper PMC4723716.
The full ranking holds about 3,600 compounds; the median of “viability index relative to DMSO control” is about 0.81, and the lowest 2% start at about 0.13. This is one part of the list.

These molecules were tested on Plasmodium falciparum NF54 stage V gametocytes (assay: viability index relative to DMSO control (fraction); higher = less gametocyte killing). Details: 1.25 µM, incubation time: 72 h.
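Further: 384-well serum-free SaLSSA: MitoTracker Red CMXRos staining with saponin lysis, high-content imaging, treated-well particle count divided by plate-mean count of DMSO wells.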

SMILES	viability index
CCc1[nH]nc2c1C(Cc1ccccc1)C(C#N)=C(N)O2 (stereo not drawn)	0.951
CCN(CC)CCCC(C)Nc1cc(C=Cc2ccc([N+](=O)[O-])cc2)nc2cc(OC)ccc12 (stereo not drawn)	0.747
CCCCC(=O)NC(c1cccc([N+](=O)[O-])c1)c1ccc2cccnc2c1O (stereo not drawn)	0.56
c1ccc(Nc2nc(-c3ccccn3)cs2)nc1	0.0653
Cc1ccc2c(c1)C(C)(c1ccc(Cl)cc1)CC(C)(C)N2C(=O)COc1ccc2ccccc2c1 (stereo not drawn)	0.826
C=CCc1cc(C=c2sc3n(c2=O)C(c2ccc(Cl)cc2)C(C(=O)OCC)=C(C)N=3)cc(OC)c1O (stereo not drawn)	0.721
Cc1nc2ccc(NC(=O)C3CC3)cc2c(=O)n1Cc1ccc(Cl)cc1	1.05
CC(=O)N(C1=C(N2CCCC2)C(=O)c2ccccc2C1=O)c1ccccc1C	0.78
COc1cc(C=C(C#N)c2nc3ccccc3[nH]2)ccc1OCc1ccccc1Cl	0.678
O=C1C2C(C(=O)N1Cc1ccccc1)C1(c3ccccc3)C(=O)C2(c2ccccc2)C(c2ccccc2)=C1c1ccccc1 (stereo not drawn)	0.792
COc1cc(/C=C2\SC(c3ccc(C)cc3)=NC2=O)cc(OC)c1OC	0.811
O=C(CN1CCCC1)Nc1nc(-c2ccc3c(c2)CCN3S(=O)(=O)c2ccccc2)cs1	0.971
Clc1ccc(-c2cn3c([n+]2-c2ccccc2)CCC3)cc1	0.687
O=C(Nc1ccc(-c2nc3ccc(-c4nc5ccc(NC(=O)c6cccc7ccccc67)cc5[nH]4)cc3[nH]2)cc1)c1cccc2ccccc12	0.171
COc1cc(C(=O)Nc2nnc(-c3ccccc3)o2)cc(OC)c1OC	0.81
Cc1ccc2c(c1)-c1c(ssc1=S)C(C)(C)N2C(=O)c1ccco1	0.703
CCOC(=O)Cn1cnc2c(nnn2Cc2ccc(F)cc2)c1=O	0.581
COc1ccc(C=CC(=O)Nc2ccncc2)cc1OC	0.928
O=C1NC(=S)NC1=Cc1ccc(C(F)(F)F)cc1	1.01
Cc1ccc(C2CC(=O)N3CN(c4ccc(Br)cc4)CSC3=C2C#N)o1 (stereo not drawn)	0.843

SMILES	viability index
Cc1cc(Cl)ccc1NC(=O)c1ccccc1[N+](=O)[O-]	1.12
COc1ccc(NC(=O)CCCCCn2c(SCC(=O)c3ccccc3)nc3ccsc3c2=O)cc1	0.784
O=C1C(Nc2ccc(Cl)cc2)=C(N2CCCCC2)C(=O)c2ccccc21	0.177
COc1cccc(OCC(=O)NN=C(C)CC(=O)NCc2ccco2)c1	0.793
COc1ccc(-c2cnc3ccc(NCc4cccc(Cl)c4)nn23)cn1	0.744
CCCCCc1nnc(NC(=O)c2ccc(-c3ccc(OC)cc3)cc2)s1	0.873
COC(=O)c1c(-c2c(F)cccc2Cl)noc1C=CNc1ccccc1	0.877
COc1ccc(C2C3=C(CC(C)(C)CC3=O)Nc3n[nH]c(C)c32)cc1 (stereo not drawn)	1.07
CCOC(=O)C1=C(C)NC2=C(C(=O)CC(c3ccc(OC)cc3)C2)C1c1ccsc1 (stereo not drawn)	0.882
O=C(O)c1cccc(N2N=C(c3ccccc3)CC2=O)c1	0.822
c1ccc(Cc2cc[n+](Cc3ccccc3)cc2)cc1	0.667
Fc1ccc(-c2cn3c([n+]2-c2ccccc2)SCC3)cc1	0.786
CCOCCCN(C(=O)C(F)(F)F)C(C(=O)NC1CCCCC1)c1ccncc1 (stereo not drawn)	0.83
O=[N+]([O-])c1cc(Br)c(Nc2ccccc2)c([N+](=O)[O-])c1	0.0522
Cc1occc1C(=O)NN=CC(Br)=Cc1ccccc1	0.826
CCN(CC)CCCNc1nc2cc(OC)c(OC)cc2c2nc(-c3ccccc3)nn12	0.727
CCOC(=O)c1ccc2nc(C)cc(Nc3ccc(N4CCCCC4)cc3)c2c1	0.749
CCC(SC1=Nc2ccccc2C2=NC(C(C)C)C(=O)N12)C(=O)Nc1cccc(C)c1 (stereo not drawn)	0.98
COc1ccc(C2Nc3ccc4ccccc4c3C3=C2C(=O)CC(C)(C)C3)cc1Br (stereo not drawn)	0.795
O=C1C(=Nc2cccc(C(F)(F)F)c2)c2ccccc2N1CN1CCc2ccccc2C1	0.916

SMILES	viability index
COc1ccccc1NC(=S)N1CCN(c2ccc([N+](=O)[O-])cc2)CC1	0.318
CCOC(=O)c1cnc2ccc(OC)cc2c1O	1.05
c1ccc2cc3c(Nc4ccc(N5CCOCC5)cc4)ccnc3cc2c1	0.79
CC(OC(=O)c1ccccc1N1C(=O)C2C3C=CC(C4CC34)C2C1=O)C(=O)c1ccccc1 (stereo not drawn)	1.02
Cc1cccc(N2CCN(c3nc4ccccc4c4nnc(C)n34)CC2)c1C	1.22
CCNC(=O)[C@@H]1C[C@@H](NC2C3CC4CC(C3)CC2C4)CN1Cc1cccc(OC)c1OC (stereo partly drawn)	0.962
Cc1ccc(C)c2[nH]c(=O)c(CN(Cc3ccccc3)C(=S)NCCCN(C)C)cc12	0.964
CN(C)c1ccc(C=C2SC(=Nc3ccccc3)NC2=O)cc1	0.415
COc1ccccc1CNC(=O)CCC1N=C2c3ccccc3N=C(SCC(=O)Nc3ccc(F)cc3)N2C1=O (stereo not drawn)	1.09
COc1cc(C(=O)N2CCN(Cc3cccc(Br)c3)CC2)cc(OC)c1OC	0.918
COc1ccc(N2CCN(C(=O)C3=C(C)C(=O)OC34CCCCC4)CC2)cc1	0.884
CCN1CCN(Cc2ccc(N(CC)CC)cc2)CC1	1.12
COc1ccc(C2CC(=O)C3=C(C2)NC(C)=C(C(=O)OC(C)C)C3c2ccccc2OC)cc1OC (stereo not drawn)	0.625
CCCCNC1=CC(=O)C(=O)c2ccccc21	0.402
O=C(CSc1nccn1C1CCCC1)Nc1cc(C(F)(F)F)ccc1Cl	0.791
COc1cccc(-c2ccc(O)c(CN(C)CCc3ccc(OC)c(OC)c3)c2)n1	0.933
CCN1C(=Cc2cccc[n+]2C)Sc2ccc(OC)cc21	0.961
COc1ccc(C=Cc2cc[n+](C)cc2)cc1OC	0.957
